Laboratory results reported in a collection of fitness landscapes (doi:10.1016/j.celrep.2020.107928).
Whole data set: some 81,000 sequences, median “one-hybrid fitness for binding parS DNA” near -0.17, cut for the highest 2% near 0.51. This is one part of the list.

B1: Caulobacter ParB omega fusion; a variant is named by its letters at X, in order, B8GW30 (parent)
chain: MESVVVGEPGMSEGRRGLGRGLSALLGEVDAAPAQAPGEQLGGSREAPIEILQRNPDQPRRTFREEDLEDLSNSIREKGVLQPILVRPSPDTAGEYQIVAGERAWRAAQRAGLKTVPIMVRELDDLAVLEIGIIENVQRADLNVLEEALSYKVLMEKFERTQENIAQTIGKSXSHVANXMRLLXLPDEVQSYLVSGELTAXHARAIAAAADPVALAKQIIEGGLSVRETEALARKAPNLSAGKSKGGRPPRVKDTDTQALESDLSSVLGLDVSIDHRGSTGTLTITYATLEQLDDLCNRLTRGI

Variants of: B1
Assay: one-hybrid fitness for binding parS DNA (scaled: cognate 1, non-cognate 0); higher = stronger binding
Conditions: with parS DNA site
Summary of the method: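 Pre- and post-selection plasmids were Illumina-sequenced, three replicate libraries were pooled, and any variant with under 10 reads was removed. The libraries were Caulobacter ParB with four specificity codons randomised, selected in E. coli USO through a HIS3 reporter whose site is 19 bp from the promoter. Cells grew 48 hours at 37°C on M9 without histidine, with 0.1 mM IPTG and 5 mM 3-AT. Fitness is the log change in variant-to-wild-type read ratio, rescaled against cognate and non-cognate.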

Row | Variant | one-hybrid fitness for binding parS DNA
1 | DRRM | ≤ 0.2
2 | RSRH | 0.232
3 | DVAL | ≤ 0.2
4 | LSVP | ≤ 0.2
5 | QPGN | ≤ 0.2
6 | RFQF | ≤ 0.2
7 | QPGI | ≤ 0.2
8 | RGHP | ≤ 0.2
9 | CHNI | ≤ 0.2
10 | CTRA | ≤ 0.2
11 | GKKS | ≤ 0.2
12 | CFNC | ≤ 0.2
13 | HSTE | ≤ 0.2
14 | PLMG | ≤ 0.2
15 | SMKC | ≤ 0.2
16 | RWKE | ≤ 0.2
17 | RMIN | 0.327
18 | AQDA | ≤ 0.2
19 | TIPT | ≤ 0.2
20 | NYRR | ≤ 0.2
21 | IIIR | ≤ 0.2
22 | PLAK | ≤ 0.2
23 | PVFM | ≤ 0.2
24 | LVSR | ≤ 0.2
25 | HMDL | ≤ 0.2

Row | Variant | one-hybrid fitness for binding parS DNA
26 | RLGP | ≤ 0.2
27 | HLFC | ≤ 0.2
28 | PGHS | ≤ 0.2
29 | GYCL | ≤ 0.2
30 | AQRA | ≤ 0.2
31 | QMQH | ≤ 0.2
32 | NGVK | ≤ 0.2
33 | NHNF | ≤ 0.2
34 | YLNK | ≤ 0.2
35 | RGSS | 0.849
36 | MKVM | ≤ 0.2
37 | IGSF | ≤ 0.2
38 | YQQC | ≤ 0.2
39 | KFMP | ≤ 0.2
40 | GVQP | ≤ 0.2
41 | WLCW | ≤ 0.2
42 | QLSV | ≤ 0.2
43 | AEAT | ≤ 0.2
44 | VYYS | ≤ 0.2
45 | GKYM | ≤ 0.2
46 | SILM | ≤ 0.2
47 | DIKR | ≤ 0.2
48 | QDKH | ≤ 0.2
49 | WFAG | ≤ 0.2
50 | NLKS | ≤ 0.2

Row | Variant | one-hybrid fitness for binding parS DNA
51 | RIWK | 0.201
52 | QSQS | ≤ 0.2
53 | RYIR | ≤ 0.2
54 | LATP | ≤ 0.2
55 | VFEI | ≤ 0.2
56 | GVKT | ≤ 0.2
57 | SCLR | ≤ 0.2
58 | QMML | ≤ 0.2
59 | GTQN | ≤ 0.2
60 | PFMG | ≤ 0.2
61 | NTQG | ≤ 0.2
62 | FHSC | ≤ 0.2
63 | PRNG | ≤ 0.2
64 | SILN | ≤ 0.2
65 | WDNM | ≤ 0.2
66 | AETK | ≤ 0.2
67 | KSMC | ≤ 0.2
68 | MGVE | ≤ 0.2
69 | HLEV | ≤ 0.2
70 | YIPA | ≤ 0.2
71 | FVFG | ≤ 0.2
72 | FTSY | ≤ 0.2
73 | GCPI | ≤ 0.2
74 | PRNV | ≤ 0.2
75 | AHES | ≤ 0.2

Row | Variant | one-hybrid fitness for binding parS DNA
76 | VPCG | ≤ 0.2
77 | THDQ | ≤ 0.2
78 | YYPM | ≤ 0.2
79 | YKNT | ≤ 0.2
80 | VAYR | ≤ 0.2
81 | IDTR | ≤ 0.2
82 | RSVK | ≤ 0.2
83 | GTQM | ≤ 0.2
84 | PYFA | ≤ 0.2
85 | HHTS | ≤ 0.2
86 | LLEC | ≤ 0.2
87 | EYKA | ≤ 0.2
88 | RLPY | 0.257
89 | PCAY | ≤ 0.2
90 | TEKA | ≤ 0.2
91 | NCIW | ≤ 0.2
92 | YSFG | ≤ 0.2
93 | VFCS | ≤ 0.2
94 | RVYP | 0.213
95 | TNFD | ≤ 0.2
96 | GLEK | ≤ 0.2
97 | LMKT | ≤ 0.2
98 | CHYT | ≤ 0.2
99 | GIQI | ≤ 0.2
100 | WHNR | ≤ 0.2

Row | Variant | one-hybrid fitness for binding parS DNA
101 | HHVS | ≤ 0.2
102 | PQDN | ≤ 0.2
103 | SNIG | ≤ 0.2
104 | CFLV | ≤ 0.2
105 | FFLR | ≤ 0.2
106 | THCS | ≤ 0.2
107 | ARIM | ≤ 0.2
108 | YPAT | ≤ 0.2
109 | SVES | ≤ 0.2
110 | TENV | ≤ 0.2
111 | KVNP | ≤ 0.2
112 | YTAT | ≤ 0.2
113 | KPII | ≤ 0.2
114 | DATF | ≤ 0.2
115 | CNAR | ≤ 0.2
116 | LPCD | ≤ 0.2
117 | HMLR | ≤ 0.2
118 | RLIQ | ≤ 0.2
119 | HVYR | ≤ 0.2
120 | DCPT | ≤ 0.2
121 | ECCR | ≤ 0.2
122 | RRYK | ≤ 0.2
123 | FRCS | ≤ 0.2
124 | MSSL | ≤ 0.2
125 | SLIC | ≤ 0.2

Row | Variant | one-hybrid fitness for binding parS DNA
126 | TSEI | ≤ 0.2
127 | TWMT | ≤ 0.2
128 | LSMT | ≤ 0.2
129 | GWHC | ≤ 0.2
130 | NKIM | ≤ 0.2
131 | PSYT | ≤ 0.2
132 | YKIR | ≤ 0.2
133 | VSGG | ≤ 0.2
134 | IQAG | ≤ 0.2
135 | QTVA | ≤ 0.2
136 | HYNV | ≤ 0.2
137 | AVGV | ≤ 0.2
138 | DGDC | ≤ 0.2
139 | NKLE | ≤ 0.2
140 | WPLT | ≤ 0.2
141 | SLCR | ≤ 0.2
142 | IQRC | ≤ 0.2
143 | SHKR | ≤ 0.2
144 | QHVG | ≤ 0.2
145 | QLAY | ≤ 0.2
146 | QMLV | ≤ 0.2
147 | YIYL | ≤ 0.2
148 | QRER | ≤ 0.2
149 | VIYR | ≤ 0.2
150 | DDED | ≤ 0.2

Row | Variant | one-hybrid fitness for binding parS DNA
151 | VTFW | ≤ 0.2
152 | HSMC | ≤ 0.2
153 | IWGG | ≤ 0.2
154 | DSFP | ≤ 0.2
155 | WIIG | ≤ 0.2
156 | RNTT | 0.746
157 | DLTM | ≤ 0.2
158 | IRTM | ≤ 0.2
159 | AKES | ≤ 0.2
160 | NSRM | ≤ 0.2
161 | MNQC | ≤ 0.2
162 | CDCT | ≤ 0.2
163 | YEET | ≤ 0.2
164 | QHTV | ≤ 0.2
165 | NTGI | ≤ 0.2
166 | KQGG | ≤ 0.2
167 | SGMQ | 0.236
168 | MTLA | ≤ 0.2
169 | LRCY | ≤ 0.2
170 | DDLL | ≤ 0.2
171 | SLAL | ≤ 0.2
172 | YFQG | ≤ 0.2
173 | ANYG | ≤ 0.2
174 | TTKG | ≤ 0.2
175 | YVRE | ≤ 0.2

Row | Variant | one-hybrid fitness for binding parS DNA
176 | WPVR | ≤ 0.2
177 | QRQN | ≤ 0.2
178 | VLCS | ≤ 0.2
179 | HSPK | ≤ 0.2
180 | KAFS | ≤ 0.2
181 | GVSS | ≤ 0.2
182 | LHFT | ≤ 0.2
183 | DALI | ≤ 0.2
184 | TMKI | ≤ 0.2
185 | YHGG | ≤ 0.2
186 | PQYV | ≤ 0.2
187 | LSWG | ≤ 0.2
188 | NCMR | ≤ 0.2
189 | VDMG | ≤ 0.2
190 | MKNF | ≤ 0.2
191 | QGDC | ≤ 0.2
192 | RELT | ≤ 0.2
193 | TEKH | ≤ 0.2
194 | APAY | ≤ 0.2
195 | RKCP | ≤ 0.2
